Residue numbers refer to the chain shown, from its start. The list shows a part of the results.
B1: CUCUACU (DNA:RNA)
RNA: GGGAGACCGGAAUUCAGAUUGUCCCUCUACUUUAAAUCCCGUCGUAGCCACCA
DNA 1: CAATCTGAATTCCGGTCTCCC
DNA 2: TGGTGGCTACGACGGGATT
B2: AGAGGAG (DNA:RNA)
RNA: GGGAGACCGGAAUUCAGAUUGUCCAGAGGAGUUAAAUCCCGUCGUAGCCACCA
DNA 1: CAATCTGAATTCCGGTCTCCC
DNA 2: TGGTGGCTACGACGGGATT
B3: ACAGCCA (DNA:RNA)
RNA: B2 RNA with G26C, G29C, A30C, G31A
DNA 1: CAATCTGAATTCCGGTCTCCC
DNA 2: TGGTGGCTACGACGGGATT
B4: GGCCAUC (DNA:RNA)
RNA: B1 RNA with C25G, U26G, U28C, C30U, U31C
DNA 1: CAATCTGAATTCCGGTCTCCC
DNA 2: TGGTGGCTACGACGGGATT
B5: GACGGCA (DNA:RNA)
RNA: B2 RNA with A25G, G26A, A27C, A30C, G31A
DNA 1: CAATCTGAATTCCGGTCTCCC
DNA 2: TGGTGGCTACGACGGGATT
B6: UUAUUAU (DNA:RNA)
RNA: B1 RNA with C25U, C27A, A29U, C30A
DNA 1: CAATCTGAATTCCGGTCTCCC
DNA 2: TGGTGGCTACGACGGGATT
B7: AGAGUGA (DNA:RNA)
RNA: B2 RNA with G29U, A30G, G31A
DNA 1: CAATCTGAATTCCGGTCTCCC
DNA 2: TGGTGGCTACGACGGGATT
B8: CGUAACA (DNA:RNA)
RNA: B1 RNA with U26G, C27U, U28A, U31A
DNA 1: CAATCTGAATTCCGGTCTCCC
DNA 2: TGGTGGCTACGACGGGATT
B9: GAGUGUU (DNA:RNA)
RNA: B1 RNA with C25G, U26A, C27G, A29G, C30U
DNA 1: CAATCTGAATTCCGGTCTCCC
DNA 2: TGGTGGCTACGACGGGATT
B10: UGGGAUU (DNA:RNA)
RNA: B2 RNA with A25U, A27G, G29A, A30U, G31U
DNA 1: CAATCTGAATTCCGGTCTCCC
DNA 2: TGGTGGCTACGACGGGATT
B11: CUUCCUA (DNA:RNA)
RNA: B1 RNA with C27U, U28C, A29C, C30U, U31A
DNA 1: CAATCTGAATTCCGGTCTCCC
DNA 2: TGGTGGCTACGACGGGATT
B12: AAAAACG (DNA:RNA)
RNA: B2 RNA with G26A, G28A, G29A, A30C
DNA 1: CAATCTGAATTCCGGTCTCCC
DNA 2: TGGTGGCTACGACGGGATT
B13: GGUUAAG (DNA:RNA)
RNA: B2 RNA with A25G, A27U, G28U, G29A
DNA 1: CAATCTGAATTCCGGTCTCCC
DNA 2: TGGTGGCTACGACGGGATT
B14: AUACAGC (DNA:RNA)
RNA: B2 RNA with G26U, G28C, G29A, A30G, G31C
DNA 1: CAATCTGAATTCCGGTCTCCC
DNA 2: TGGTGGCTACGACGGGATT
B15: ACCAUUC (DNA:RNA)
RNA: B2 RNA with G26C, A27C, G28A, G29U, A30U, G31C
DNA 1: CAATCTGAATTCCGGTCTCCC
DNA 2: TGGTGGCTACGACGGGATT
B16: AUUCUGU (DNA:RNA)
RNA: B1 RNA with C25A, C27U, U28C, A29U, C30G
DNA 1: CAATCTGAATTCCGGTCTCCC
DNA 2: TGGTGGCTACGACGGGATT
B17: GCUAAUC (DNA:RNA)
RNA: B1 RNA with C25G, U26C, C27U, U28A, C30U, U31C
DNA 1: CAATCTGAATTCCGGTCTCCC
DNA 2: TGGTGGCTACGACGGGATT
B18: UUGAGCG (DNA:RNA)
RNA: B2 RNA with A25U, G26U, A27G, G28A, A30C
DNA 1: CAATCTGAATTCCGGTCTCCC
DNA 2: TGGTGGCTACGACGGGATT
B19: GGAAGGA (DNA:RNA)
RNA: B2 RNA with A25G, G28A, A30G, G31A
DNA 1: CAATCTGAATTCCGGTCTCCC
DNA 2: TGGTGGCTACGACGGGATT
B20: GCUCGUA (DNA:RNA)
RNA: B2 RNA with A25G, G26C, A27U, G28C, A30U, G31A
DNA 1: CAATCTGAATTCCGGTCTCCC
DNA 2: TGGTGGCTACGACGGGATT

Biological target: T1, RBFOX1 RRM RbFoxmut (Fox-RRM*) (Homo sapiens, UniProt Q9NWB1 109-208, R118D;E147R;N151S;E152T)
T1 sequence: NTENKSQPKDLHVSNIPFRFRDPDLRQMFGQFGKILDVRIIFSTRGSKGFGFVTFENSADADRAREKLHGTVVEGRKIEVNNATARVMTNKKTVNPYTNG
Experiment: EMSA; HiTS-Eq, 1 nM pool, 10 min; buffer printed only for the single-RNA assays: 10 mM Tris pH 7.5, 150 mM NaCl, 3.4 mM EDTA, 0.001% NP-40, 30 C
Details: tags: His6 N-terminal (pET28a); label: 5' 32P
Outline: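 Purified wild-type or mutant RbFox RRM at increasing concentrations was equilibrated with 1 nM of 5′-radiolabelled RNA carrying 7 randomized nucleotides for 10 min in 50 µL. Unbound RNA was separated by 8% native PAGE and sequenced. Relative association constants came from read-count changes of each RNA species compared with the control reaction, normalised to the cognate motif.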

Row | Binder | binding signal
1 | B1 | 0.0889 KA relative to UGCAUGU
2 | B2 | 0.116 KA relative to UGCAUGU
3 | B3 | 0.0917 KA relative to UGCAUGU
4 | B4 | 0.125 KA relative to UGCAUGU
5 | B5 | 0.149 KA relative to UGCAUGU
6 | B6 | 0.116 KA relative to UGCAUGU
7 | B7 | 0.11 KA relative to UGCAUGU
8 | B8 | 0.101 KA relative to UGCAUGU
9 | B9 | 0.147 KA relative to UGCAUGU
10 | B10 | 0.0869 KA relative to UGCAUGU
11 | B11 | 0.102 KA relative to UGCAUGU
12 | B12 | 0.108 KA relative to UGCAUGU
13 | B13 | 0.0741 KA relative to UGCAUGU
14 | B14 | 0.0938 KA relative to UGCAUGU
15 | B15 | 0.0618 KA relative to UGCAUGU
16 | B16 | 0.125 KA relative to UGCAUGU
17 | B17 | 0.0635 KA relative to UGCAUGU
18 | B18 | 0.189 KA relative to UGCAUGU
19 | B19 | 0.0476 KA relative to UGCAUGU
20 | B20 | 0.135 KA relative to UGCAUGU

From PMC9911399, “Two distinct binding modes provide the RNA-binding protein RbFox with extraordinary sequence specificity”
